According to PubChem BioAssay AID1963576 (National Center for Advancing Translational Sciences (NCATS), 2024):
Hit rate of the full screen: of about 46,000 compounds, about 60 (0.1%) were called active. Another 3% or so got no clear call; they are omitted. Calls follow the shape of the dose curve; as a rule, active = well fitted inhibition curve with a large enough effect; inconclusive = small, poorly fitted or top-dose-only effect; inactive = no such curve, though single readings can be large or run the other way. The list shows a part of the results.

assay: Primary qHTS assay for Inhibitors of ovarian cancer metastasis using an organotypic tumor microenvironment (TME) model.; also: nearly all actives have a fitted effect of over 65% in size;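 as to activity change, negative = inhibition: plate controls were DMSO wells for no effect and tomatine positive control wells for full effect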; conditions: SKOV3ip1-GFP adhesion/invasion on 3D omental model, fluorescence; series mostly up to 45.8 µM; activity change, negative = inhibition: at the top concentration
Procedure, shortened: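 qHTS, 4-pt dose (0.36-46 umol/L); SKOV3ip1-GFP, 1,200 cells/well, no FBS; primary omental fibroblast/mesothelial co-culture 48 h pre-grown; 2 h RT + 16 h 37 C; PBS wash, 4% PFA; GFP count 488/509 nm.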

outcome, inactive:
Cc1cccc(Cc2c(C)nc3nc(SCC(=O)NCc4ccccc4)nn3c2C)c1
CCC(=O)N1CCc2cc(Br)cc(S(=O)(=O)N3CCCC(C(=O)Nc4cccc(F)c4)C3)c21 (stereo unspecified)
CCOc1ccc(NC(=O)c2oc3ccccc3c2NC(=O)c2cc(C)cc(C)c2)cc1
COc1ccc(CCNC(=O)Cn2ncc3c(=O)oc4ccccc4c32)c(OC)c1
CCOc1ccc(NC(=O)c2cnc(Nc3ccccc3OC)c3ccccc23)cc1
Cn1c(=O)oc2cc(S(=O)(=O)N3CCC(C(=O)Nc4ccc(F)c(Cl)c4)CC3)ccc21
COc1cccc(CNC(=O)CN(c2ccc(C(C)C)cc2)S(=O)(=O)c2c(C)noc2C)c1
Cc1ccc(C)c(N2CCN(C(=O)C3CCC(CNS(=O)(=O)c4cccs4)CC3)CC2)c1 (stereo unspecified)
CCOC(=O)N1CCc2c(sc3c2c(=O)n(-c2ccc(CC)cc2)c(=O)n3Cc2cccc(Cl)c2)C1
Cc1ccc(C)c(N2CCN(C(=O)c3cc4cc5ccc(C)cc5nc4o3)CC2)c1
Cc1ccc(NC(=O)C2CCN(S(=O)(=O)c3cccc4nsnc34)CC2)cc1
CCn1nc(C)c2c(-c3ccccc3)cc(=O)n(C(C)C(=O)Nc3ccc(OC)c(OC)c3)c21 (stereo unspecified)
N#C/C(=C\c1ccc(O)cc1)C(=O)NCC1CCCO1 (stereo unspecified)
CCC1CCCCN1CCCNC(=O)c1ccc2c(c1)c(C)c(C)n2CC (stereo unspecified)
CCOC(=O)c1c(Nc2ccc(C)c(C)c2)nnc(-c2ccccc2)c1-c1ccccc1
CCN(c1ccccc1C)S(=O)(=O)c1nnc(NC(=O)c2ccc(OC)c(OC)c2)s1
O=C(NCCc1ccccc1)c1ccc2c(c1)N(Cc1ccc(Cl)cc1)C(=O)c1ccccc1S2(=O)=O
CC1=C(C(=O)NCc2cccc(F)c2)C2(CCCCCC2)OC1=O

Activity change, negative = inhibition, inactive:
CC(C)Oc1ccc(CNC(=O)c2cccc(NC(=O)N3CCSc4ncccc43)c2)cc1 -2.63%
CCOC(=O)CSc1nc2sc3c(c2c(=O)n1-c1ccccc1)CCC(C(C)(C)C)C3 (stereo unspecified) -0.119%
CCOc1ccc(CCNC(=O)CCSCc2ccc(Cl)cc2)cc1OCC -12.4%
CCc1ccc2oc(-c3cc(NC(=O)c4cccnc4)cc(C)c3O)nc2c1 0.437%
COc1ccc(CC(=O)NCc2ccc3c(c2)CCN3C(=O)c2ccc(Cl)cc2)cc1 -16.8%
CCOC(=O)c1sc(NC(=O)c2cc3nc(-c4ccccc4)cc(C(F)(F)F)n3n2)c(C(=O)OCC)c1C 2.3%
CCOC(=O)c1cc(-c2ccccc2)n(-c2cccc(C(=O)Nc3cc(OC)cc(OC)c3)c2)c1C -8.41%
Cc1cc(C)cc(Oc2c(C(F)(F)F)oc3cc(OCC(=O)NC4CCCCC4)ccc3c2=O)c1 4.17%
O=C(Nc1cccc(Br)c1)N1CCC(CN2CCCCCC2)CC1 11%
Cc1ccc(CNC(=O)CSc2c(C)cnc3c2c(=O)n(C)c(=O)n3C)cc1 -1.3%
CCC1CN(C(=O)N2CCC(C(=O)NCCc3ccc(OC)c(OC)c3)CC2)c2ccccc2O1 (stereo unspecified) -9.29%
C=CCc1cc(OC)c(O)c(C(=O)NCCO)c1 -3.92%
CCc1cccc(NC(=O)Cn2c(=O)n(CCCCCC(=O)NCc3ccc(F)cc3)c(=O)c3sccc32)c1 2.39%
CCn1cc(C(=O)OCC(=O)Nc2cc(Cl)ccc2C)c(=O)c2ccc(C)nc21 -4.24%
CCCCOc1ccc(C2C(=O)N(C3CCCCC3)CC(=O)N2C2CCCCC2)cc1 (stereo unspecified) 9.67%
Cc1ccc(NC(=O)CN2C(=O)C(c3ccc(F)cc3)=NC23CCCCCC3)c(C)c1 -0.579%
CCCCCCc1c(C)c2c(cc(C)c3c(C)coc32)oc1=O -7.72%
CCOC(=O)c1ccccc1NC(=O)CN(c1ccccc1)S(=O)(=O)c1ccc(OCC)cc1 1.06%
Cc1cccc(NC(=O)Nc2cccs2)c1C -2.1%
COc1ccc(C2C=C(c3ccccc3)Nc3nc(NC(C)=O)nn32)cc1 (stereo unspecified) 20.9%
O=C(CCc1cn(Cc2ccc(F)cc2)c2ccccc12)NC1CCCCC1 2.22%
Cc1cc(C)cc(NC(=O)Cn2nnc(-c3ccccc3F)n2)c1 -19.1%
CC1=C(c2ccc(C)c(C)c2)S(=O)(=O)N(Cc2ccc(C(=O)NCc3ccccc3F)cc2)C1=O 7.69%
O=C(NCCc1ccccc1)c1c[nH]c2ccc(S(=O)(=O)Nc3ccc(F)cc3F)cc2c1=O -4.67%
CCCC(=O)Nc1cc2nn(-c3ccc(OC)cc3)nc2cc1C 5.96%
Cc1ccc(C)c(OCC(=O)Nc2sc3c(c2C#N)CCCC3)c1C -4.43%
COc1cccc(NC(=O)C2CCCN(c3ncnc4onc(-c5ccc(F)cc5)c34)C2)c1 (stereo unspecified) 1.87%
COc1ccc(C(=O)CC2(O)C(=O)N(Cc3ccccc3)c3ccc(Br)cc32)cc1 (stereo unspecified) -6.33%
CCc1ccc(C(=O)c2cn(CC(=O)NCCc3ccccc3)c3nc(C)ccc3c2=O)cc1 1.43%
COc1ccc(CNC(=O)CN2N=C(c3ccc(Cl)cc3)CCC2=O)cc1 -1.33%
COc1ccc(-c2nn(C)c3sc(C(=O)NCCN(C)C)cc23)cc1OC 2.69%
Cc1cc(C)c(NC(=O)Cn2c(=O)n(CCC(C)C)c(=O)c3cccnc32)c(C)c1 3.19%
Cc1ccc(C2=Nc3ccccc3N=C(c3ccc(F)cc3)C2)c(O)c1 5.02%
Cc1ccc(N2CC(NC(=O)CCCc3ccccc3)CC2=O)cc1 (stereo unspecified) -5.41%
COc1ccc(Cn2c(SCc3ccc(C(=O)NCc4ccc(C)cc4)cc3)nc3cccnc32)cc1 2.05%
O=C(NCCSc1c[nH]c2ccccc12)c1ccc(Cl)cc1 10.3%
COc1ccc(CNC(=O)c2ccc(CN3C(=O)C(C)=C(c4ccc(C)cc4)S3(=O)=O)cc2)cc1 -2.6%
Cc1cc(O)c2c(C)c(CC(=O)NCc3ccccc3Cl)c(=O)oc2c1 -0.396%
Cc1ccc(Cl)cc1N1CCN(c2nc3ccc(C(=O)c4ccccc4)cc3n3cnnc23)CC1 9.75%
O=C(Cn1nc(Cc2cccnc2)c2ccccc2c1=O)N1CCN(c2ccccc2F)CC1 -1.53%
CCc1nc(SC)ncc1C(=O)NCc1cccc(Br)c1 -18.1%
COc1ccc(CNC(=O)c2cc(-c3ccc(Br)s3)nc3ccccc23)c(OC)c1 -5.84%
Cc1ccc(-n2ncc(C(=O)Nc3ccc4c(c3)OCCO4)c2C2CCN(C(=O)OC(C)(C)C)CC2)cc1C 27.8%
